T1: recombinant human CD25 extracellular domain, C-terminal poly-histidine tagged (human, UniProt P01589 22-240)
T1 construct: also called CD25/IL-2Rα; IL-2Rα
T1 sequence: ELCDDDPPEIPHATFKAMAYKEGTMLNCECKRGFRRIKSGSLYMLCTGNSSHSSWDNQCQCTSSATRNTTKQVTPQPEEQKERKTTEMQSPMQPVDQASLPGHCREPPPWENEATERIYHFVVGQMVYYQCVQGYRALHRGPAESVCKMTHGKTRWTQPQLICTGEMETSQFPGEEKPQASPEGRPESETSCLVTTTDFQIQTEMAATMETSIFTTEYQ

T2: recombinant human CD122 extracellular domain, C-terminal poly-histidine tagged (human, UniProt P14784 27-240)
T2 construct: also called CD122/IL-2Rβ; IL-2Rβ
T2 sequence: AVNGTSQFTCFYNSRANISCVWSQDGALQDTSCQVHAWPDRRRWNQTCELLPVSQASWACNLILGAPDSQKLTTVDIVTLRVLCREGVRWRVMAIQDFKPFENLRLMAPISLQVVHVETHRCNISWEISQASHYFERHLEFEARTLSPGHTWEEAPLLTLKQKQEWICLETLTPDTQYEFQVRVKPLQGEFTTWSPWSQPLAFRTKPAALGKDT


Tests used:
[1] = target: T1, recombinant human CD25 extracellular …; test: BLI (Octet)
[2] = target: T2, recombinant human CD122 extracellular …; test: BLI (Octet)

Row | Kd [1] | koff [1] | kon [1] | binding result [2] | Kd [2] | koff [2] | kon [2] | binding result [1] | Binder
1 | 1.42 nM | 0.000214 s⁻¹ | 151000 M⁻¹ s⁻¹ | no binding (tested: 300 nM) |  |  |  |  | 1H3-hIgG1-L6-hIL-2 (D20Y) (other, Built as m13) heavy: EVQLVESGGGLVQPGRSLKLSCAVSGFTFSDYAMAWVRQAPKKGLEWVATISYDGSRTYYRDSVKGRFTISRDNAKITLYLQMDSLRSEDTATYYCARHGSGYFDYWGQGVMVTVSS[not shown - about 450 residues with a human IgG1 Fc and changes] light: DTVLTQSPALAVSPGERVTISCRASESVRTGVHWYQQKPGQQPKLLIYGASNLESGVPARFSGSGSGTDFTLTIDPVEADDTATYFCQQSWNDPFTFGSGTKLEIKRTVAAPSVFIFPPSDEQLKSGTASVVCLLNNFYPREAKVQWKVDNALQSGNSQESVTEQDSKDSTYSLSSTLTLSKADYEKHKVYACEVTHQGLSSPVTKSFNRGEC
2 | 2.04 nM | 0.000235 s⁻¹ | 115000 M⁻¹ s⁻¹ |  | 8.89 nM | 0.00156 s⁻¹ | 175000 M⁻¹ s⁻¹ |  | 1H3-hIgG1-L6-hIL-2 (E15A) (other) heavy: EVQLVESGGGLVQPGRSLKLSCAVSGFTFSDYAMAWVRQAPKKGLEWVATISYDGSRTYYRDSVKGRFTISRDNAKITLYLQMDSLRSEDTATYYCARHGSGYFDYWGQGVMVTVSS[not shown - about 450 residues with a human IgG1 Fc and changes] light: DTVLTQSPALAVSPGERVTISCRASESVRTGVHWYQQKPGQQPKLLIYGASNLESGVPARFSGSGSGTDFTLTIDPVEADDTATYFCQQSWNDPFTFGSGTKLEIKRTVAAPSVFIFPPSDEQLKSGTASVVCLLNNFYPREAKVQWKVDNALQSGNSQESVTEQDSKDSTYSLSSTLTLSKADYEKHKVYACEVTHQGLSSPVTKSFNRGEC
3 | 32.5 nM | 0.00405 s⁻¹ | 124000 M⁻¹ s⁻¹ | no binding (tested: 300 nM) |  |  |  |  | 1H3-hIgG1-L6-hIL-2 (F42K/Y45R/D20A/S87A) (other, Built as m13) heavy: EVQLVESGGGLVQPGRSLKLSCAVSGFTFSDYAMAWVRQAPKKGLEWVATISYDGSRTYYRDSVKGRFTISRDNAKITLYLQMDSLRSEDTATYYCARHGSGYFDYWGQGVMVTVSS[not shown - human IgG1 constant region]SGGGGSAPTSSSTKKTQLQLEHLLLALQMILNGINNYKNPKLTRMLTKKFRMPKKATELKHLQCLEEELKPLEEVLNLAQSKNFHLRPRDLIANINVIVLELKGSETTFMCEYADETATIVEFLNRWITFCQSIISTLT light: DTVLTQSPALAVSPGERVTISCRASESVRTGVHWYQQKPGQQPKLLIYGASNLESGVPARFSGSGSGTDFTLTIDPVEADDTATYFCQQSWNDPFTFGSGTKLEIKRTVAAPSVFIFPPSDEQLKSGTASVVCLLNNFYPREAKVQWKVDNALQSGNSQESVTEQDSKDSTYSLSSTLTLSKADYEKHKVYACEVTHQGLSSPVTKSFNRGEC
4 | 1.39 nM | 0.000237 s⁻¹ | 171000 M⁻¹ s⁻¹ |  | 3.56 nM | 0.000862 s⁻¹ | 242000 M⁻¹ s⁻¹ |  | 1H3-hIgG1-L6-hIL-2 (E15K) (other, Built as m13) heavy: EVQLVESGGGLVQPGRSLKLSCAVSGFTFSDYAMAWVRQAPKKGLEWVATISYDGSRTYYRDSVKGRFTISRDNAKITLYLQMDSLRSEDTATYYCARHGSGYFDYWGQGVMVTVSS[not shown - about 450 residues with a human IgG1 Fc and changes] light: DTVLTQSPALAVSPGERVTISCRASESVRTGVHWYQQKPGQQPKLLIYGASNLESGVPARFSGSGSGTDFTLTIDPVEADDTATYFCQQSWNDPFTFGSGTKLEIKRTVAAPSVFIFPPSDEQLKSGTASVVCLLNNFYPREAKVQWKVDNALQSGNSQESVTEQDSKDSTYSLSSTLTLSKADYEKHKVYACEVTHQGLSSPVTKSFNRGEC
5 | 3.41 nM | 0.000323 s⁻¹ | 94800 M⁻¹ s⁻¹ |  | 3.69 nM | 0.000538 s⁻¹ | 146000 M⁻¹ s⁻¹ |  | 1H3-hIgG1-L6-hIL-2 (E15R) (other, Built as m13) heavy: EVQLVESGGGLVQPGRSLKLSCAVSGFTFSDYAMAWVRQAPKKGLEWVATISYDGSRTYYRDSVKGRFTISRDNAKITLYLQMDSLRSEDTATYYCARHGSGYFDYWGQGVMVTVSS[not shown - about 450 residues with a human IgG1 Fc and changes] light: DTVLTQSPALAVSPGERVTISCRASESVRTGVHWYQQKPGQQPKLLIYGASNLESGVPARFSGSGSGTDFTLTIDPVEADDTATYFCQQSWNDPFTFGSGTKLEIKRTVAAPSVFIFPPSDEQLKSGTASVVCLLNNFYPREAKVQWKVDNALQSGNSQESVTEQDSKDSTYSLSSTLTLSKADYEKHKVYACEVTHQGLSSPVTKSFNRGEC
6 | 1.46 nM | 0.00022 s⁻¹ | 150000 M⁻¹ s⁻¹ |  | 4.36 nM | 0.00435 s⁻¹ | 997000 M⁻¹ s⁻¹ |  | 1H3-hIgG1-L6-hIL-2 (H16Y) (other, Built as m13) heavy: EVQLVESGGGLVQPGRSLKLSCAVSGFTFSDYAMAWVRQAPKKGLEWVATISYDGSRTYYRDSVKGRFTISRDNAKITLYLQMDSLRSEDTATYYCARHGSGYFDYWGQGVMVTVSS[not shown - about 450 residues with a human IgG1 Fc and changes] light: DTVLTQSPALAVSPGERVTISCRASESVRTGVHWYQQKPGQQPKLLIYGASNLESGVPARFSGSGSGTDFTLTIDPVEADDTATYFCQQSWNDPFTFGSGTKLEIKRTVAAPSVFIFPPSDEQLKSGTASVVCLLNNFYPREAKVQWKVDNALQSGNSQESVTEQDSKDSTYSLSSTLTLSKADYEKHKVYACEVTHQGLSSPVTKSFNRGEC
7 |  |  |  | no binding (tested: 300 nM) |  |  |  | no binding (tested: 300 nM) | 1H3-hIgG1-L6-hIL-2 (F42K/Y45R/D20A/E95A) (other, Built as m13) heavy: EVQLVESGGGLVQPGRSLKLSCAVSGFTFSDYAMAWVRQAPKKGLEWVATISYDGSRTYYRDSVKGRFTISRDNAKITLYLQMDSLRSEDTATYYCARHGSGYFDYWGQGVMVTVSS[not shown - human IgG1 constant region]SGGGGSAPTSSSTKKTQLQLEHLLLALQMILNGINNYKNPKLTRMLTKKFRMPKKATELKHLQCLEEELKPLEEVLNLAQSKNFHLRPRDLISNINVIVLALKGSETTFMCEYADETATIVEFLNRWITFCQSIISTLT light: DTVLTQSPALAVSPGERVTISCRASESVRTGVHWYQQKPGQQPKLLIYGASNLESGVPARFSGSGSGTDFTLTIDPVEADDTATYFCQQSWNDPFTFGSGTKLEIKRTVAAPSVFIFPPSDEQLKSGTASVVCLLNNFYPREAKVQWKVDNALQSGNSQESVTEQDSKDSTYSLSSTLTLSKADYEKHKVYACEVTHQGLSSPVTKSFNRGEC
8 | 1.68 nM | 0.000287 s⁻¹ | 171000 M⁻¹ s⁻¹ |  | 1.78 nM | 0.00276 s⁻¹ | 1.55e+06 M⁻¹ s⁻¹ |  | 1H3-hIgG1-L6-hIL-2 (H16A) (other, Built as m13) heavy: EVQLVESGGGLVQPGRSLKLSCAVSGFTFSDYAMAWVRQAPKKGLEWVATISYDGSRTYYRDSVKGRFTISRDNAKITLYLQMDSLRSEDTATYYCARHGSGYFDYWGQGVMVTVSS[not shown - about 450 residues with a human IgG1 Fc and changes] light: DTVLTQSPALAVSPGERVTISCRASESVRTGVHWYQQKPGQQPKLLIYGASNLESGVPARFSGSGSGTDFTLTIDPVEADDTATYFCQQSWNDPFTFGSGTKLEIKRTVAAPSVFIFPPSDEQLKSGTASVVCLLNNFYPREAKVQWKVDNALQSGNSQESVTEQDSKDSTYSLSSTLTLSKADYEKHKVYACEVTHQGLSSPVTKSFNRGEC
9 | 1.4 nM | 0.00022 s⁻¹ | 157000 M⁻¹ s⁻¹ | no binding (tested: 300 nM) |  |  |  |  | 1H3-hIgG1-L6-hIL-2 (H16E) (other, Built as m13) heavy: EVQLVESGGGLVQPGRSLKLSCAVSGFTFSDYAMAWVRQAPKKGLEWVATISYDGSRTYYRDSVKGRFTISRDNAKITLYLQMDSLRSEDTATYYCARHGSGYFDYWGQGVMVTVSS[not shown - about 450 residues with a human IgG1 Fc and changes] light: DTVLTQSPALAVSPGERVTISCRASESVRTGVHWYQQKPGQQPKLLIYGASNLESGVPARFSGSGSGTDFTLTIDPVEADDTATYFCQQSWNDPFTFGSGTKLEIKRTVAAPSVFIFPPSDEQLKSGTASVVCLLNNFYPREAKVQWKVDNALQSGNSQESVTEQDSKDSTYSLSSTLTLSKADYEKHKVYACEVTHQGLSSPVTKSFNRGEC
10 |  |  |  |  | 9.16 nM | 0.00344 s⁻¹ | 375000 M⁻¹ s⁻¹ | no binding (tested: 300 nM) | 1H3-hIgG1-L6-hIL-2 (F42K/Y45R/Q126D) (other, Built as m13) heavy: EVQLVESGGGLVQPGRSLKLSCAVSGFTFSDYAMAWVRQAPKKGLEWVATISYDGSRTYYRDSVKGRFTISRDNAKITLYLQMDSLRSEDTATYYCARHGSGYFDYWGQGVMVTVSS[not shown - human IgG1 constant region]SGGGGSAPTSSSTKKTQLQLEHLLLDLQMILNGINNYKNPKLTRMLTKKFRMPKKATELKHLQCLEEELKPLEEVLNLAQSKNFHLRPRDLISNINVIVLELKGSETTFMCEYADETATIVEFLNRWITFCDSIISTLT light: DTVLTQSPALAVSPGERVTISCRASESVRTGVHWYQQKPGQQPKLLIYGASNLESGVPARFSGSGSGTDFTLTIDPVEADDTATYFCQQSWNDPFTFGSGTKLEIKRTVAAPSVFIFPPSDEQLKSGTASVVCLLNNFYPREAKVQWKVDNALQSGNSQESVTEQDSKDSTYSLSSTLTLSKADYEKHKVYACEVTHQGLSSPVTKSFNRGEC

Source: patent publication US20240076343A1 (CEPHALON, published 2024)
